Experimental data taken from the supplement of paper PMC11417369.
This is one part of the list.

Tested on: PF3D7_0420300 AP2 domain 1 (GST-tagged)
Assay: gcPBM binding intensity (ln(normalized median fluorescence intensity)); higher = stronger DNA binding
Outline: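 Probes on an Agilent 4 × 180k array were primer-extended, double-stranded and 36 bp long, taken from intergenic genomic regions, with negative controls added. GST-tagged P. falciparum DNA-binding domains from E. coli, about 25 μg on average, were applied to the array for 1 h in 1× PBS containing 1% milk, 0.2 mg/ml BSA, 0.5% salmon testes DNA and 0.03% Triton X-100. Binding intensity, obtained after Alexa488 anti-GST antibody detection and a 488 nm scan, is the highest Masliner-normalised natural-log median intensity across replicate spots of either probe orientation.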

Sequence | gcPBM binding intensity (ln)
AAATAATATAAATACACACACACATATATAAATACA [CACACA_site4465] | 10.2
ATATATATAATAAGTGGTACAAGTTATTCATTAAAT [XGTACX_site7063] | 9.42
TTTTTTTATACAATTTTATATATTAAATATTATAAT [CACACA_negctrl_site226] | 8.99
AAAGAAAACGGACTTTGTACTTAAATATAATATAAA [XGTACX_site8585] | 9.1
TAAAGTTATATATTATGTACATATTTGTATACATTT [XGTACX_site2516] | 9.26
AAATATAGTATTAAAACACACATTTATATAAAAAGG [CACACA_site1482] | 9.45
AACAAAAAAACAAACACACACACACGCATATTTATA [CACACA_site7680] | 10.2
TGAACTCATAGGAAAACACACATATGTGTAATATAT [CACACA_site4267] | 9.61
AAAAACAACACAGATAAATTAACACACACACACATA [XGTACX_negctrl_site588] | 10.2
TATATACTCAGACATACACACAAATAAAAAAACACC [CACACA_site5820] | 10.1
TTATGTGATTTTAATTGTACATAAATATTTGTTAAC [XGTACX_site3489] | 9.13
CACGCATACAGACACACACACACACGGATATAAATA [CACACA_site6445] | 10.3
TGTATTACGAAAAAATGTACAGAAAAAGAAACAAAA [XGTACX_site2777] | 9.49
TTTGTCATAAGCAATGCATGTAAGTTTCTGACATTA [TGCATGCA_site1007] | 8.86
TGGGATAGATCATTTACACACACAAAAAAAAAAAAA [CACACA_site2140] | 9.62
TCTTATATATTTATTTGTACATATATATATATATAT [XGTACX_site7214] | 9.24
AACAACTATTAATTTACACACATGTATTTATTTTAC [CACACA_site5683] | 9.73
AATTGTCAGAGAATATGTACTTAAGTATTTATTGTT [XGTACX_site1947] | 9.3
AATGCATTGATTGCATTCAAAAAAAAAAAAAAAAAA [XGTACX_negctrl_site597] | 8.35

Sequence | gcPBM binding intensity (ln)
AATAAGATATCTACAACACACATTTAATTTTTTTTT [CACACA_site1641] | 9.42
AATCATAAAGAACATATAATATATATATATATATAT [CACACA_negctrl_site316] | 9.22
ATAAAAAAATAAAACACACACATATATATTATATAT [CACACA_site2810] | 10
TAAATAAAAAAACACACACACATATATATATATATA [CACACA_site2269] | 9.94
AATATATGCTTTCGTTATATTAAATTCAATTTAATG [GTGCAC_negctrl_site76] | 9.1
AATTTTAAAAATATAACACACATATATAAAATATAT [CACACA_site3610] | 9.35
AATGAAGAAAAAAAAAGTACATTATTTTTAAAACTT [XGTACX_site563] | 9.16
TTTTAAATAAAATATTGTACATTAAAATTGTAATAT [XGTACX_site2128] | 8.86
ATTATAAATATGTATATACACACTTTTAATATTCAT [CACACA_site9367] | 9.5
AAGCAAACATATTAATGTACACACACCCACACACAA [XGTACX_site5806] | 10.1
TAAGATAAATGATAAAGTACTTTTTTTTTTTAAATA [XGTACX_site2326] | 8.84
ATTTATAAAATTAATAGTACATATATTTATATATAT [XGTACX_site4173] | 9.01
TATTGCACAAAATAATTTTATTATACTTTATGTTAG [TGCATGCA_negctrl_site574] | 9.15
TATGTTCATCATAGCACACATATATAAATTACAACA [CACACA_site3533] | 9.22
ATTTGGCATAGACACACACACACACGCACGCACATA [CACACA_site6424] | 10.4
CAAAAATAAACTATAGTACACACTTATTATTATGAA [CACACA_site2702] | 9.46
TTTTTATGTAGAATTTTTTTATTTTTTCAAAATGGA [CACACA_negctrl_site166] | 8.69
ATTGTAATCATATGAAGTACTAATATATATTTTAAT [XGTACX_site8350] | 9.13
TATAATGTTAAATAATGTACATATATTTTTTTTTTT [XGTACX_site4722] | 9.07

Sequence | gcPBM binding intensity (ln)
TTACAATTTAATATATGTACATATTTGTGATTTATC [XGTACX_site2911] | 9.2
TATATATATTAAAAAGTGCATTATTCATATTATATA [GTGCAC_site9400] | 9.09
TTTATTAATAATTATACACACATATAAAATGAATAA [CACACA_site1359] | 9.33
AAAATATCTTGTTACTGTACAAATATAAATAAATAC [XGTACX_site3684] | 9.24
ATATATACGTATGAATGTATATTTGTTTGAATTTTT [CACACA_negctrl_site524] | 9.17
AATAATAACATACAGACACACACGTAAAAGCACGTG [CACACA_site253] | 9.9
TTTATATATTAATATGCACACACAAGAAGTAATTAT [CACACA_site9045] | 9.68
AATGGGTAAACATACACACACACATATATATATATA [CACACA_site1991] | 9.87
TATTAATATTTTTGTTGTACTTAAAAATGATGGTAG [XGTACX_site3501] | 8.97
AGTAAAAAAAAAAAAAAAAAAAAAAAAAAAAAAAAA [GTGCAC_negctrl_site147] | 8.67
TATTATTTTAATTATTCACACATTATTATAAAAATT [CACACA_site5538] | 9.12
CATATACACGAACACACACACATATAAATAAATATA [CACACA_site6379] | 10.1
GGAATATTAAAAAAATGTACAAAAAATAATATCCAT [XGTACX_site2596] | 9.43
GTCAACAAGAATTAAGTGCATAATTTTTTATTAAAT [GTGCAC_site9492] | 9.08
ATATAATAATAATATTGTACAATAAAAAATATATAT [XGTACX_site7350] | 9.49
ATACAGATAGGATGCACACATAATTCAAATACAATA [CACACA_site4531] | 9.58
ATGTCAAGAACTGAACGTACAAACTTTGTAATATTG [XGTACX_site8754] | 9.28
AGTAATAATCGGCATGCATGTCAGTGGTAGTATATA [TGCATGCA_site312] | 9.62
